Among the test systems are SNB-75 CNS; OVCAR-4 ovarian; COLO 205 colon; RXF 393 renal; OVCAR-3 ovarian; NCI-H522 lung; EKVX NSCLC; SK-MEL-28 melanoma; MALME-3M melanoma.
Common to all, as to experiment: inhibition of tumour cell growth, NCI panel, 48 h

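Grown in 96-well plates, cells were treated for 48 hours with each compound at five concentrations. Insufficient inhibition: endpoint recorded as highest concentration tested. Here, GI50 denotes the concentration required for 50% inhibition of growth.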 Some entries of the source have several records that differ or are many. The other results are left out here. There may be further records. For part of these data: The tests behind the records often covered other concentration ranges, which the source does not state; a value can be the end of its range. For part of these data: The values listed for one entry repeat one measurement (runs, samples, wells, individuals or studies). A tag in brackets gives the origin of a value. Letters hold for one entry only.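 Definition used: TGI = concentration required for complete inhibition of growth.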

In the case of `Nc1nc(N)c2nc(CNc3ccc(C(=O)NC(CCC(=O)O)C(=O)O)cc3)cnc2n1` (centres undefined), the GI50 in the assay with SNB-75 CNS is 27.5 µM [sample A, mean of 2 tests] and 92.1 nM [sample B, 1 test]; in the assay with OVCAR-4 ovarian, < 10 nM [sample A, 1 test] and > 100 µM [sample B, mean of 2 tests]; in the assay on COLO 205 colon, 1.79 µM [sample A, mean of 2 tests] and 81.9 nM [sample B, mean of 2 tests]; in the assay with RXF 393 renal, > 100 µM [sample A, 1 test] and 82.7 nM [sample B, mean of 2 tests].

Consider `CN1CC[C@H](N(C)C(=O)N2CC(c3cc(F)ccc3F)=C[C@@]2(CO)c2ccccc2)[C@H](F)C1`, for which the TGI in the assay with OVCAR-3 ovarian was 179 nM and > 100 µM; with NCI-H522 lung, 97.8 nM and 17.5 µM. The GI50 was 19.8 nM and 343 nM with EKVX NSCLC; 342 nM and 12 µM with SK-MEL-28 melanoma; 51 nM and 11.1 µM with MALME-3M melanoma.

The values above are taken from PubChem BioAssay (NCI).
